Reference: the supplement of paper PMC9588766
Where a name gives a salt, the structure may show the parent alone. In all, about 1,900 compounds were measured (“cell viability of compound + 1 nM pemigatinib relative to pemigatinib-only (DMSO) wells”: median about 0.95, lowest 2% from about 0.22 on). Some of the results follow.

test system: PDC-DUC18828; assay: cell viability of compound + 1 nM pemigatinib relative to pemigatinib-only (DMSO) wells (fraction); PDC-DUC18828 is a patient-derived cholangiocarcinoma cell line; higher = less growth inhibition; settings: first compound 1 µM; pemigatinib concentration 1 nM; 72 h
Protocol: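 Selleck Bioactive library screen in the patient-derived FGFR2 fusion-positive ICC cell line PDC-DUC18828 (500 cells/well). Each compound was tested at 1 uM with 1 nM pemigatinib, in triplicate, for 72 h. Viability was read by CellTiter-Glo and normalised to plate DMSO controls. Value is the paper's averaged normalised viability.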

| SMILES | cell viability |
| --- | --- |
| Cc1nc(-c2ccc(OCC(C)C)c(C#N)c2)sc1C(=O)O [Febuxostat] + CCN1C(=O)N(c2c(F)c(OC)cc(OC)c2F)Cc2cnc3[nH]c(CN4CCOCC4)cc3c21 [pemigatinib] | 0.996 |
| CN(C)CCCN1c2ccccc2Sc2ccc(Cl)cc21 [Chlorpromazine HCl] + CCN1C(=O)N(c2c(F)c(OC)cc(OC)c2F)Cc2cnc3[nH]c(CN4CCOCC4)cc3c21 [pemigatinib] | 0.935 |
| C[C@H](Nc1ncnc2[nH]cnc12)c1cc2ccc(F)cc2nc1-c1ccccn1 + CCN1C(=O)N(c2c(F)c(OC)cc(OC)c2F)Cc2cnc3[nH]c(CN4CCOCC4)cc3c21 [pemigatinib] | 0.858 |
| Nc1ccc(C(=O)Nc2cccc(-c3nc(N4CCOCC4)c4oc5ncccc5c4n3)c2)cn1 + CCN1C(=O)N(c2c(F)c(OC)cc(OC)c2F)Cc2cnc3[nH]c(CN4CCOCC4)cc3c21 [pemigatinib] | 0.704 |
| Nc1nc(=S)c2ncn([C@H]3C[C@H](O)[C@@H](CO)O3)c2[nH]1 + CCN1C(=O)N(c2c(F)c(OC)cc(OC)c2F)Cc2cnc3[nH]c(CN4CCOCC4)cc3c21 [pemigatinib] | 0.893 |
| O=c1ccc2ccccc2o1 [Coumarin] + CCN1C(=O)N(c2c(F)c(OC)cc(OC)c2F)Cc2cnc3[nH]c(CN4CCOCC4)cc3c21 [pemigatinib] | 1 |
| Cc1nc(-c2cccnc2)sc1C(=O)Nc1ccccc1-c1cn2c(CN3CCOCC3)csc2n1 + CCN1C(=O)N(c2c(F)c(OC)cc(OC)c2F)Cc2cnc3[nH]c(CN4CCOCC4)cc3c21 [pemigatinib] | 0.898 |
| COc1cc([C@@H]2c3cc4c(cc3[C@@H](O[C@@H]3O[C@@H]5CO[C@@H](c6cccs6)O[C@H]5[C@H](O)[C@H]3O)[C@H]3COC(=O)[C@H]23)OCO4)cc(OC)c1O [Teniposide] + CCN1C(=O)N(c2c(F)c(OC)cc(OC)c2F)Cc2cnc3[nH]c(CN4CCOCC4)cc3c21 [pemigatinib] | 0.194 |
| O=C1NC(=O)/C(=C/c2ccc3c(c2)OC(F)(F)O3)S1 + CCN1C(=O)N(c2c(F)c(OC)cc(OC)c2F)Cc2cnc3[nH]c(CN4CCOCC4)cc3c21 [pemigatinib] | 1.01 |
| O=c1[nH]cnc2c1ncn2[C@@H]1O[C@H](CO)[C@@H](O)[C@H]1O [Inosine] + CCN1C(=O)N(c2c(F)c(OC)cc(OC)c2F)Cc2cnc3[nH]c(CN4CCOCC4)cc3c21 [pemigatinib] | 0.963 |
| CCOc1ccccc1OC(c1ccccc1)C1CNCCO1 (configuration not stated) [Reboxetine mesylate] + CCN1C(=O)N(c2c(F)c(OC)cc(OC)c2F)Cc2cnc3[nH]c(CN4CCOCC4)cc3c21 [pemigatinib] | 0.96 |
| c1cncc(CN2CCC(n3ncc4c(N5CCOCC5)nc(-c5ccc6[nH]ccc6c5)nc43)CC2)c1 + CCN1C(=O)N(c2c(F)c(OC)cc(OC)c2F)Cc2cnc3[nH]c(CN4CCOCC4)cc3c21 [pemigatinib] | 0.592 |
| COC1CCN(C(=O)c2cc(Cc3n[nH]c(=O)c4ccccc34)ccc2F)CC1 + CCN1C(=O)N(c2c(F)c(OC)cc(OC)c2F)Cc2cnc3[nH]c(CN4CCOCC4)cc3c21 [pemigatinib] | 0.884 |
| Cc1cc(C)c(S(=O)(=O)n2cc(C)cc2C)c(C)c1 + CCN1C(=O)N(c2c(F)c(OC)cc(OC)c2F)Cc2cnc3[nH]c(CN4CCOCC4)cc3c21 [pemigatinib] | 0.957 |
| Cc1[nH]c2ccccc2c1CCNCc1ccc(/C=C/C(=O)NO)cc1 [Panobinostat (LBH589)] + CCN1C(=O)N(c2c(F)c(OC)cc(OC)c2F)Cc2cnc3[nH]c(CN4CCOCC4)cc3c21 [pemigatinib] | 0.0639 |
| O=C(O)[C@H]1O[C@@H](Oc2cc3oc(-c4ccccc4)cc(=O)c3c(O)c2O)[C@H](O)[C@@H](O)[C@@H]1O [Baicalin] + CCN1C(=O)N(c2c(F)c(OC)cc(OC)c2F)Cc2cnc3[nH]c(CN4CCOCC4)cc3c21 [pemigatinib] | 1.01 |
| Cn1cc(-c2ccncc2)c(-c2ccc(OCc3ccc4ccccc4n3)cc2)n1 + CCN1C(=O)N(c2c(F)c(OC)cc(OC)c2F)Cc2cnc3[nH]c(CN4CCOCC4)cc3c21 [pemigatinib] | 0.99 |
| C=CC(=O)Nc1ccc(CN2C(=O)N(c3cc(OC)cc(OC)c3)Cc3cnc(Nc4ccc(N5CCN(C)CC5)cc4)nc32)cc1 + CCN1C(=O)N(c2c(F)c(OC)cc(OC)c2F)Cc2cnc3[nH]c(CN4CCOCC4)cc3c21 [pemigatinib] | 0.871 |
| Cc1ncc(Cl)cc1NCc1ccc(C(=O)N[C@@H](CC2CCCC2)C(=O)NC2CC2)s1 + CCN1C(=O)N(c2c(F)c(OC)cc(OC)c2F)Cc2cnc3[nH]c(CN4CCOCC4)cc3c21 [pemigatinib] | 0.957 |

| SMILES | cell viability |
| --- | --- |
| C=CC(C)(C)c1cc(/C=C/C(=O)c2ccc(O)cc2)c(OC)cc1O [Licochalcone A] + CCN1C(=O)N(c2c(F)c(OC)cc(OC)c2F)Cc2cnc3[nH]c(CN4CCOCC4)cc3c21 [pemigatinib] | 0.924 |
| CCCCCCCCCCCCc1ccc(S(=O)(=O)Nc2nncs2)cc1 + CCN1C(=O)N(c2c(F)c(OC)cc(OC)c2F)Cc2cnc3[nH]c(CN4CCOCC4)cc3c21 [pemigatinib] | 1 |
| OC(CCCN1CCCCC1)(c1ccccc1)c1ccccc1 [Diphenidol HCl] + CCN1C(=O)N(c2c(F)c(OC)cc(OC)c2F)Cc2cnc3[nH]c(CN4CCOCC4)cc3c21 [pemigatinib] | 0.927 |
| CCN(CC)CCOC(=O)C(c1ccccc1)c1ccccc1 [Adiphenine HCl] + CCN1C(=O)N(c2c(F)c(OC)cc(OC)c2F)Cc2cnc3[nH]c(CN4CCOCC4)cc3c21 [pemigatinib] | 1.01 |
| C[C@H]1[C@H](C)CC[C@]2(C(=O)O)CC[C@]3(C)C(=CC[C@@H]4[C@@]5(C)C[C@@H](O)[C@H](O)[C@@](C)(CO)[C@@H]5CC[C@]43C)[C@H]12 [Asiatic Acid] + CCN1C(=O)N(c2c(F)c(OC)cc(OC)c2F)Cc2cnc3[nH]c(CN4CCOCC4)cc3c21 [pemigatinib] | 0.979 |
| CCOC(=O)c1ccc(N)cc1 [Benzocaine] + CCN1C(=O)N(c2c(F)c(OC)cc(OC)c2F)Cc2cnc3[nH]c(CN4CCOCC4)cc3c21 [pemigatinib] | 1.02 |
| CN1CCN(c2c(F)cc3c(=O)c(C(=O)O)cn4c3c2OCN4C)CC1 [Marbofloxacin] + CCN1C(=O)N(c2c(F)c(OC)cc(OC)c2F)Cc2cnc3[nH]c(CN4CCOCC4)cc3c21 [pemigatinib] | 1.06 |
| CN(Cc1cnc2nc(N)nc(N)c2n1)c1ccc(C(=O)N[C@@H](CCC(=O)O)C(=O)O)cc1 [Methotrexate] + CCN1C(=O)N(c2c(F)c(OC)cc(OC)c2F)Cc2cnc3[nH]c(CN4CCOCC4)cc3c21 [pemigatinib] | 0.901 |
| CCOc1ccc2nc3cc(N)ccc3c(N)c2c1 [Ethacridine lactate monohydrate] + CCN1C(=O)N(c2c(F)c(OC)cc(OC)c2F)Cc2cnc3[nH]c(CN4CCOCC4)cc3c21 [pemigatinib] | 0.889 |
| Nc1cc(F)ccc1NC(=O)/C=C/c1cnn(C/C=C/c2ccccc2)c1 + CCN1C(=O)N(c2c(F)c(OC)cc(OC)c2F)Cc2cnc3[nH]c(CN4CCOCC4)cc3c21 [pemigatinib] | 0.976 |
| O=C(CCCCCCC(=O)Nc1ccc([C@H]2O[C@@H](CSc3nc(-c4ccccc4)c(-c4ccccc4)o3)C[C@@H](c3ccc(CO)cc3)O2)cc1)NO [Tubacin] + CCN1C(=O)N(c2c(F)c(OC)cc(OC)c2F)Cc2cnc3[nH]c(CN4CCOCC4)cc3c21 [pemigatinib] | 0.983 |
| COc1cc(C(C)=O)ccc1O [Apocynin] + CCN1C(=O)N(c2c(F)c(OC)cc(OC)c2F)Cc2cnc3[nH]c(CN4CCOCC4)cc3c21 [pemigatinib] | 0.968 |
| OC(CN1CCN(c2cccc(Cl)c2)CC1)C(c1ccccc1)c1ccccc1 (configuration not stated) + CCN1C(=O)N(c2c(F)c(OC)cc(OC)c2F)Cc2cnc3[nH]c(CN4CCOCC4)cc3c21 [pemigatinib] | 0.997 |
| COc1cc(OC)c(/C=C/S(=O)(=O)Cc2ccc(OC)c(NCC(=O)O)c2)c(OC)c1 + CCN1C(=O)N(c2c(F)c(OC)cc(OC)c2F)Cc2cnc3[nH]c(CN4CCOCC4)cc3c21 [pemigatinib] | 0.214 |
| CN(C)[C@@H]1C(O)=C(C(N)=O)C(=O)[C@@]2(O)C(O)=C3C(=O)c4c(O)cccc4[C@@](C)(O)[C@H]3[C@H](O)[C@@H]12 [Oxytetracycline (Terramycin)] + CCN1C(=O)N(c2c(F)c(OC)cc(OC)c2F)Cc2cnc3[nH]c(CN4CCOCC4)cc3c21 [pemigatinib] | 0.977 |
| CN(C)[C@@H]1C(O)=C(C(N)=O)C(=O)[C@@]2(O)C(O)=C3C(=O)c4c(O)cccc4[C@@](C)(O)[C@H]3[C@H](O)[C@@H]12 [Oxytetracycline Dihydrate] + CCN1C(=O)N(c2c(F)c(OC)cc(OC)c2F)Cc2cnc3[nH]c(CN4CCOCC4)cc3c21 [pemigatinib] | 1.02 |
| C/C(=C\c1ccc(C(=O)O)cc1)c1ccc2c(c1)C(C)(C)CCC2(C)C [TTNPB (Arotinoid Acid)] + CCN1C(=O)N(c2c(F)c(OC)cc(OC)c2F)Cc2cnc3[nH]c(CN4CCOCC4)cc3c21 [pemigatinib] | 0.908 |
| COc1ccc(-c2ccc3c(N4CCOCC4)nc(N4C[C@@H](C)O[C@@H](C)C4)nc3n2)cc1CO + CCN1C(=O)N(c2c(F)c(OC)cc(OC)c2F)Cc2cnc3[nH]c(CN4CCOCC4)cc3c21 [pemigatinib] | 0.933 |
